{"source": "patent US20090162353A1", "about": "(MacroGenics, published 2009)", "binders": {"B1": {"name": "Ch12F (antibody, V domains shown)", "VH": "EVQLLESGAEVKKPGESLKISCKGSGYTFASYWIVWVRQMPGKGLEYMGSIYPGDSGTRYSPSFRGQVTISADKSINTAYLQWGSLKASDTAFYYCARLKPLRGSLFGEPIGPYDYWGQATLVTVSS", "VL": "ELALTQPASVSGSPGQSITISCTGTSSDVGGYNAVSWYQQHPGKAPKLMIYEVNKRPSGVSNRFSGSKSGNTASLTISGLQAEDEADYYCSSYRSGGTVVFGGGTKLTVLG"}}, "biological_target": "vaccinia virus recombinant B5 protein (vaccinia virus)", "experiment": "ELISA, B5 capture, IgG detect (luminescence) [C]", "data": [{"binder": "B1", "values": [{"measurement": "binding result", "result": "no binding (tested: 1 ug/ml)"}]}]}
